According to a collection of fitness landscapes (doi:10.1016/j.celrep.2020.107928):
The full ranking holds about 81,000 sequences; the median of “one-hybrid fitness for binding NBS DNA” is about -0.1, and the highest 2% start at about 0.36. The list shows a part of the results.

B1: Caulobacter ParB omega fusion; a variant is named by its letters at X, in order, B8GW30 (parent)
chain: MESVVVGEPGMSEGRRGLGRGLSALLGEVDAAPAQAPGEQLGGSREAPIEILQRNPDQPRRTFREEDLEDLSNSIREKGVLQPILVRPSPDTAGEYQIVAGERAWRAAQRAGLKTVPIMVRELDDLAVLEIGIIENVQRADLNVLEEALSYKVLMEKFERTQENIAQTIGKSXSHVANXMRLLXLPDEVQSYLVSGELTAXHARAIAAAADPVALAKQIIEGGLSVRETEALARKAPNLSAGKSKGGRPPRVKDTDTQALESDLSSVLGLDVSIDHRGSTGTLTITYATLEQLDDLCNRLTRGI

Variants of: B1
Assay: one-hybrid fitness for binding NBS DNA (the Noc-binding site; scaled: cognate 1, non-cognate 0); higher = stronger binding
Conditions: with NBS DNA site
In short: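 Pre- and post-selection plasmids were Illumina-sequenced, three replicate libraries were pooled, and any variant with under 10 reads was removed. The libraries were Caulobacter ParB with four specificity codons randomised, selected in E. coli USO through a HIS3 reporter whose site is 19 bp from the promoter. Cells grew 48 hours at 37°C on M9 without histidine, with 0.1 mM IPTG and 5 mM 3-AT. Fitness is the log change in variant-to-wild-type read ratio, rescaled against cognate and non-cognate.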

Variant | one-hybrid fitness for binding NBS DNA
TSHQ | ≤ 0.2
HNAC | ≤ 0.2
LFSL | ≤ 0.2
PRFM | ≤ 0.2
SHIR | ≤ 0.2
RQVV | ≤ 0.2
PLQP | ≤ 0.2
WINM | ≤ 0.2
RQFM | ≤ 0.2
LSRY | ≤ 0.2
CENR | ≤ 0.2
NWDR | ≤ 0.2
LGSP | ≤ 0.2
AAML | ≤ 0.2
RSHP | ≤ 0.2
NPWL | ≤ 0.2
RPMI | ≤ 0.2
MNDR | ≤ 0.2
SRIT | ≤ 0.2
RVCY | ≤ 0.2
PYTK | ≤ 0.2
YRKF | ≤ 0.2
AQRD | ≤ 0.2
AELT | ≤ 0.2

Variant | one-hybrid fitness for binding NBS DNA
NDMH | ≤ 0.2
QPSF | ≤ 0.2
HESA | ≤ 0.2
YRFR | ≤ 0.2
VLKI | ≤ 0.2
AYCT | ≤ 0.2
PFDY | ≤ 0.2
CLNR | ≤ 0.2
HTDG | ≤ 0.2
VWKY | ≤ 0.2
WHGC | ≤ 0.2
GPCG | ≤ 0.2
HVDG | ≤ 0.2
AEGR | ≤ 0.2
FTQG | ≤ 0.2
NLAV | ≤ 0.2
TAHM | ≤ 0.2
VAGD | ≤ 0.2
CAGC | ≤ 0.2
IRGH | ≤ 0.2
RDTR | ≤ 0.2
QTGC | 0.246
NYSD | ≤ 0.2
WWER | ≤ 0.2

Variant | one-hybrid fitness for binding NBS DNA
WTTL | ≤ 0.2
SVCD | ≤ 0.2
PYES | ≤ 0.2
NISS | ≤ 0.2
YRGT | ≤ 0.2
HATV | ≤ 0.2
TVAM | ≤ 0.2
IVAL | ≤ 0.2
VHSL | ≤ 0.2
WANR | ≤ 0.2
QHPF | ≤ 0.2
NRVE | ≤ 0.2
NLVV | ≤ 0.2
YWSM | ≤ 0.2
TELT | ≤ 0.2
TIKV | ≤ 0.2
HAQM | ≤ 0.2
GMAG | ≤ 0.2
VWRS | ≤ 0.2
CQTY | ≤ 0.2
RGDW | ≤ 0.2
AWSV | ≤ 0.2
CPTS | ≤ 0.2
HHKA | ≤ 0.2

Variant | one-hybrid fitness for binding NBS DNA
KFTG | ≤ 0.2
CFLR | ≤ 0.2
QQDL | ≤ 0.2
QLQK | ≤ 0.2
RIWT | 0.279
WVWG | ≤ 0.2
NTKC | ≤ 0.2
PIGF | ≤ 0.2
TPNQ | ≤ 0.2
SDSM | ≤ 0.2
ATLW | ≤ 0.2
DPRM | ≤ 0.2
QNYM | ≤ 0.2
QMLT | 0.395
PLLW | ≤ 0.2
QKVQ | 0.268
PVRI | ≤ 0.2
HMRG | ≤ 0.2
NTSW | ≤ 0.2
SKLR | ≤ 0.2
RLHQ | ≤ 0.2
MQPF | ≤ 0.2
HKVT | ≤ 0.2
CCSG | ≤ 0.2

Variant | one-hybrid fitness for binding NBS DNA
VWIT | ≤ 0.2
PQHC | ≤ 0.2
SKRI | ≤ 0.2
SEAE | ≤ 0.2
NCTD | ≤ 0.2
CTSI | ≤ 0.2
PVYE | ≤ 0.2
QSQV | ≤ 0.2
ADHY | ≤ 0.2
GSAT | ≤ 0.2
MWML | ≤ 0.2
HPSY | ≤ 0.2
HVCR | ≤ 0.2
QECG | ≤ 0.2
TAGG | ≤ 0.2
QRCT | 0.806
DLFR | ≤ 0.2
LERS | ≤ 0.2
RRCM | 0.271
ISLC | ≤ 0.2
EHAG | ≤ 0.2
AAIR | ≤ 0.2
KFER | ≤ 0.2
TRSG | ≤ 0.2

Variant | one-hybrid fitness for binding NBS DNA
HQWY | ≤ 0.2
YVAT | ≤ 0.2
PCDR | ≤ 0.2
PHQS | ≤ 0.2
GTVL | ≤ 0.2
YKTA | ≤ 0.2
QMWH | ≤ 0.2
QSMV | ≤ 0.2
LSKC | ≤ 0.2
QWKD | ≤ 0.2
DYYG | ≤ 0.2
FRNM | ≤ 0.2
RHFD | ≤ 0.2
EWHL | ≤ 0.2
KMPR | ≤ 0.2
HSIS | ≤ 0.2
TSAN | ≤ 0.2
LSES | ≤ 0.2
QNRI | ≤ 0.2
WNRT | ≤ 0.2
WAVV | ≤ 0.2
SFSV | ≤ 0.2
WLGT | ≤ 0.2
LCGT | ≤ 0.2

Variant | one-hybrid fitness for binding NBS DNA
WVMR | ≤ 0.2
DYLK | ≤ 0.2
LVHG | ≤ 0.2
QNDI | ≤ 0.2
PIPT | ≤ 0.2
GDGT | ≤ 0.2
RGHH | ≤ 0.2
AAQS | ≤ 0.2
CQVK | ≤ 0.2
GGRG | ≤ 0.2
ELYC | ≤ 0.2
WLLD | ≤ 0.2
HYDT | ≤ 0.2
SYFL | ≤ 0.2
PGDS | ≤ 0.2
MRKY | ≤ 0.2
NCAI | 0.216
PTSF | ≤ 0.2
MPCG | ≤ 0.2
RGLP | ≤ 0.2
FAAI | ≤ 0.2
YHES | ≤ 0.2
KGHM | ≤ 0.2
RHKA | 0.333

Variant | one-hybrid fitness for binding NBS DNA
HCAY | ≤ 0.2
FRYG | ≤ 0.2
GLHR | ≤ 0.2
QLSK | ≤ 0.2
PPRY | ≤ 0.2
KMPT | ≤ 0.2
PITI | ≤ 0.2
NMFR | ≤ 0.2
NTSI | ≤ 0.2
KINR | ≤ 0.2
AWIY | ≤ 0.2
DLNL | ≤ 0.2
SRSL | ≤ 0.2
TDCL | ≤ 0.2
PSNM | ≤ 0.2
CTHL | ≤ 0.2
PLTY | ≤ 0.2
TRHF | ≤ 0.2
ELAY | ≤ 0.2
KQKY | ≤ 0.2
AYNA | ≤ 0.2
CLPR | ≤ 0.2
AEIT | ≤ 0.2
DKYI | ≤ 0.2

Variant | one-hybrid fitness for binding NBS DNA
CFPG | ≤ 0.2
PQPD | ≤ 0.2
AEKT | ≤ 0.2
AHDP | ≤ 0.2
CLRN | ≤ 0.2
ARMN | ≤ 0.2
EQAT | ≤ 0.2
RSSC | ≤ 0.2
NEMT | ≤ 0.2
PRAS | ≤ 0.2
SSLK | ≤ 0.2
THLT | ≤ 0.2
VPTI | ≤ 0.2
MNMN | ≤ 0.2
MSTG | ≤ 0.2
GFYS | ≤ 0.2
CTTK | ≤ 0.2
QCCI | ≤ 0.2
SAQL | ≤ 0.2
HKVR | ≤ 0.2
IVAR | ≤ 0.2
GDDR | ≤ 0.2
AVFS | ≤ 0.2
TKSL | ≤ 0.2

Variant | one-hybrid fitness for binding NBS DNA
PHAN | ≤ 0.2
KRCE | ≤ 0.2
SHAG | ≤ 0.2
KPPT | ≤ 0.2
DIQM | ≤ 0.2
GKGD | ≤ 0.2
WSIM | ≤ 0.2
RTIP | ≤ 0.2
RKPS | ≤ 0.2
GHTR | ≤ 0.2
IWST | ≤ 0.2
QKWT | 0.454
YAHS | ≤ 0.2
TFPR | ≤ 0.2
RPCN | ≤ 0.2
RLVR | 0.257
VLKN | ≤ 0.2
GPVL | ≤ 0.2
HANM | ≤ 0.2
QTCK | ≤ 0.2
FQRN | ≤ 0.2
RQVL | ≤ 0.2
LSNV | ≤ 0.2
SNPC | ≤ 0.2

Variant | one-hybrid fitness for binding NBS DNA
THMM | ≤ 0.2
MIQC | ≤ 0.2
SKRC | ≤ 0.2
QPPM | ≤ 0.2
VLMV | ≤ 0.2
RTGL | ≤ 0.2
TALR | ≤ 0.2
VIYV | ≤ 0.2
YPQI | ≤ 0.2
GCSW | ≤ 0.2
KNHR | ≤ 0.2
APFW | ≤ 0.2
RGTE | ≤ 0.2
SMLW | ≤ 0.2
ITDL | ≤ 0.2
PKPY | ≤ 0.2
QVNR | 0.465
SAWW | ≤ 0.2
ALRW | ≤ 0.2
TIPH | ≤ 0.2
GERN | ≤ 0.2
RISA | ≤ 0.2
PRRK | ≤ 0.2
NVYG | ≤ 0.2

Variant | one-hybrid fitness for binding NBS DNA
QAGN | ≤ 0.2
LSQE | ≤ 0.2
NKTI | ≤ 0.2
RGQY | ≤ 0.2
TGAD | ≤ 0.2
RVID | ≤ 0.2
SDQS | ≤ 0.2
NVDE | ≤ 0.2
TESQ | ≤ 0.2
QLVY | ≤ 0.2
LKPS | ≤ 0.2
PDLY | ≤ 0.2
SFTH | ≤ 0.2
RNNA | ≤ 0.2
SSRQ | ≤ 0.2
HREV | ≤ 0.2
MEYG | ≤ 0.2
EGLW | ≤ 0.2
IGTC | ≤ 0.2
PPWL | ≤ 0.2
IACM | ≤ 0.2
YDLL | ≤ 0.2
RNFK | ≤ 0.2
AIVF | ≤ 0.2

Variant | one-hybrid fitness for binding NBS DNA
TGPG | ≤ 0.2
FMTN | ≤ 0.2
HHDS | ≤ 0.2
LTPL | ≤ 0.2
LRHV | ≤ 0.2
RSKR | 0.682
DKVC | ≤ 0.2
NMNR | ≤ 0.2
SRIQ | ≤ 0.2
PPPS | ≤ 0.2
LHKL | ≤ 0.2
EAFW | ≤ 0.2
YLQA | ≤ 0.2
VRRC | ≤ 0.2
RMCA | ≤ 0.2
LHAW | ≤ 0.2
MVPT | ≤ 0.2
DSER | ≤ 0.2
